In the supplement of paper PMC10441789 one finds antibody binding signal data, which are given here for 40 sequences.

This is one part of the list. Antibody binding of pooled human sera (four to six donors per pool; dilution not stated) to peptides of the Trypanosoma cruzi antigen TSSA on microarrays. Quantile-normalised fluorescence in arbitrary units, mean of duplicate arrays; higher = more binding. No active / inactive call. The uninfected pools are read here as the healthy donors of the same country. The strongest signals lie near the top of the scale (about 60,000).

The test system of the assay is pooled sera of uninfected people, Colombia. In words: antibody binding signal (normalised fluorescence) (arbitrary fluorescence units); higher = stronger serum antibody binding to peptide. The protocol:
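Microarray of 15-residue peptides over residues 30-55 of Trypanosoma cruzi TSSAII, each with 1 to 10 substitutions at naturally variable positions, probed with one serum pool per country.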
As to TPPSGTDNKTAAGET, the antibody binding signal came out at 248.

With DNKPATGGAPSPPGA, the antibody binding signal worked out at 207.

In the case of GKEKKPAAGEAPSPP, the antibody binding signal was 92. The result for TPPSGKENKPAAGEA reads 854; that for EKKAATGEAPSPSGA, 512; that for PPSGKDKKAATGGTP, 366. Turning to TDNKAATGETPSQPG, the antibody binding signal amounted to 211. The result for TDKKTATGGAPSQSG reads 157. On to EKKAATGEAPSPPGA, for which the antibody binding signal was 635.

In the case of DNKAAAGGAPSPSGA, the antibody binding signal was found to be 292.

Sequence SSTPPSGKENKPATG came in with an antibody binding signal of 711. The result for GTENKAAAGGAPSPS reads 321; that for TENKPAAGETPSPPG, 162; that for GTENKTATGETPSPP, 207.

As to DKKTATGETPSQPGA, the antibody binding signal was 186.

Regarding PPSGTENKPAAGGAP, the antibody binding signal is 1190.

With SGKDNKAATGGTPSP, the antibody binding signal turned out to be 393. Consider TEKKPAAGETPSPSG, for which the antibody binding signal came out at 178. TPPSGKDKKPAAGEA came in with an antibody binding signal of 262.

Turning to TEKKTAAGGTPSPPG, the antibody binding signal is 474. Sequence PPSGKENKPATGGAP came in with an antibody binding signal of 537.

The sequence KDNKAAAGETPSPSG came in with an antibody binding signal of 173. In turn, EKKTATGGAPSPSGA came in with an antibody binding signal of 161. The sequence TPPSGKEKKPATGEA returned an antibody binding signal of 558. In the case of PSGKEKKTAAGGAPS it was 201; in that of GTENKAAAGEAPSPP, 103; in that of GKDNKPAAGEAPSPS, 336. Sequence ENKAAAGGAPSQSGA had an antibody binding signal of 239. In turn, PSGTEKKTAAGGAPS came in with an antibody binding signal of 317. In turn, PPSGTDNKTAAGGTP showed an antibody binding signal of 363.

In turn, TPPSGKEKKPATGGA gave an antibody binding signal of 256. The result for GTDKKPATGGAPSPS reads 146. The result for SGKDKKTAAGEAPSP reads 572; that for SGKENKPATGEAPSQ, 451; that for TSSTPPSGKDNKTAA, 205. In the case of TEKKAAAGGTPSPPG it was 228. For PSGKENKTATGEAPS, the antibody binding signal amounted to 1080. As for DNKTATGGAPSQSGA, the antibody binding signal was 214. Regarding TEKKTATGETPSQPG, the antibody binding signal is 240. Consider NKAAAGETPSPSGAS, for which the antibody binding signal came out at 419.
